Experimental findings from PMC12040169 (PLOS Biology, 2025) are described below.

Some of the results follow.

For this experiment, the system named is T1, C. trachomatis L2/434/Bu expressing GFP (CTL2-GFP).
T1 construct: L2/434/Bu GFP intracellular growth in HeLa cells
Further details: species or system HeLa; C. trachomatis total inclusion area by high-content imaging, normalised to DMSO. Particulars: total inclusion area; 28.5 h, 10 µM; inhibitor. The gist of the method:
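Following bulk GFP and resorufin fluorescence reads, infected cells were fixed, Hoechst-stained and imaged on a high-content platform. Inclusion total area and number per well served as growth proxies; nuclei counts indicated host viability. MICs were derived as for the fluorescence assay.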
`O=C(c1sccc1Br)N1CCN(Cc2ccc3c(c2)OCO3)CC1` [CBK074730]: the “% of control remaining” value is 52.5232.

`CC(C)(CC(=O)O)CC(=O)N1CCCC1c1nc(-c2ccccc2)c2ccccn12` (stereo not shown) [CBK046399]: the “% of control remaining” value amounted to 97.3942. Under `CCn1nc(CO)c2c1CCN(CC(=O)NCc1cccs1)C2` [CBK307638] stands 77.6007; under `CC(C)(C)c1ccc(S(N)(=O)=O)cc1NC(=O)Nc1cccc(F)c1` [CBK093643], 90.3702.

Consider `O=C1CCCC2=C1C(c1ccc(OCc3ccccc3)cc1)c1c([nH][nH]c1=O)N2` (stereo not shown) [CBK288149], for which the “% of control remaining” value was found to be 108.802. The value for `Fc1ccc(-c2noc(C3CCN(CCc4ccccc4)CC3)n2)cc1` [CBK051457] was 89.7525. The value for `N#Cc1ccc(C(=O)N2CC[C@H]3NC(=O)N(c4ccccc4)C(=O)[C@H]32)cc1` [CBK289282] was 117.823; that for `Cc1ccc(NS(=O)(=O)c2cc(C(=O)N3CCN(C)CC3)ccc2C)cc1C` [CBK269268] was 112.09.

Take `O=C(Nc1nnc(-c2ccc3c(c2)OCCO3)o1)c1ccccc1F` [CBK287405]: the “% of control remaining” value was 115.064.

Consider `COc1cccc(CNC(=O)CCc2nc3ccccc3[nH]2)c1` [CBK288003], for which the “% of control remaining” value was 103.694.

On to `Nc1ccc2ccc(-c3ccncc3)nc2n1` [CBK067622], for which the “% of control remaining” value worked out at 97.3403. Under `CN(C)c1nc(N2CCN(c3ccc(F)cc3)CC2)cc(C(F)(F)F)n1` [CBK007432] stands 72.2231. On to `CCC(=O)Nc1ccc(-c2csc(N3CCCC(C)C3)n2)cc1` (stereo not shown) [CBK306478], for which the “% of control remaining” value is listed as 75.2266. For `O=C(CC1Oc2ccccc2NC1=O)Nc1ccc2c(c1)CN(Cc1ccccc1)C2` (stereo not shown) [CBK285991], the “% of control remaining” value is recorded as 111.314. Under `NS(=O)(=O)c1ccc(NC(=O)CCCN2C(=O)/C(=C/c3ccc(Cl)cc3)SC2=S)cc1` [CBK261302] stands 99.4206; under `CN(C)c1ccc(/C=C/CN2CCN(c3ccc([N+](=O)[O-])cc3)CC2)cc1` [CBK261904], 100.45; under `COC(=O)c1sc2cc(C(F)(F)F)cnc2c1-c1cccnc1` [CBK089885], 101.304. Under `CCOc1ccc(C(=O)NC(=S)Nc2sc(C)c(C)c2C#N)cc1Cl` [CBK268900] stands 87.9387. Take `CN1CCOC(CNc2nc(-c3ccncc3)nc3c2CCC3)C1` (stereo not shown) [CBK304890]: the “% of control remaining” value stood at 16.1524. The value for `O=C(c1cccs1)N1CCCC1c1nc2ccccc2[nH]1` (stereo not shown) [CBK284006] was 97.0384. Take `COc1cc(/C=C2\SC(=S)N(Cc3cccnc3)C2=O)ccc1OCc1cccc2ccccc12` [CBK264624]: the “% of control remaining” value stood at 91.216. Under `COc1ccc(C(C)c2cc3c(cc2OCCO)OCO3)c(F)c1` (stereo not shown) [CBK200111] stands 28.8401. The value for `CSc1nc(C(=O)N2CCCCC2c2cccc(F)c2)cs1` (stereo not shown) [CBK306732] was 58.2725; that for `CSc1ccccc1C(=O)Nc1sc2c(c1C#N)CCN(C(C)=O)C2` [CBK304183] was 8.741; that for `Cn1ccnc1C(NC(=O)N1CCOc2ccc(Cl)cc2C1)C1CC1` (stereo not shown) [CBK307212] was 51.397. Under `Cl/C(=C\c1ccccc1)CN1CCOCC1` [CBK261892] stands 86.5471.

Take `O=C(NCCCN1CCOCC1)/C(=N\O)c1ccccn1` [CBK288366]: the “% of control remaining” value was 64.3332. The value for `Cc1cc(C(=O)N2CCC(F)CC2)n[nH]1` [CBK200277] was 98.6504; that for `COc1ccc(C(=O)CSc2nnc(-c3ccccc3)c3ccccc23)cc1OC` [CBK297088] was 93.7288; that for `CCc1cc(=O)[nH]c(-c2ccc(N3CCCC3C(=O)N(C)C)nc2)n1` (stereo not shown) [CBK304197] was 89.9964. The value for `O=C(O)CCCNC(=O)COc1ccccc1OCC(=O)NCCCC(=O)O` [CBK296089] was 101.033; that for `CCN1C(=O)CC2(C1=O)C(=O)N(Cc1nnc(-c3ccc(C)cc3)o1)c1ccc(OC)cc12` (stereo not shown) [CBK075586] was 89.8144.

Take `O=C(O)c1cccc(NS(=O)(=O)c2ccc(Br)cc2C(F)(F)F)c1` [CBK155724]: the “% of control remaining” value came out at 87.5775. Turning to `O=C(COc1ccc([N+](=O)[O-])cc1)Nc1ccc(CN2CCCCC2)cc1` [CBK266204], the “% of control remaining” value stood at 127.159.

Consider `COC(=O)Cn1cc(CN2CC3CCCN3C[C@H]2C)c2ccccc21` (stereo partly shown) [CBK285436], for which the “% of control remaining” value is listed as 108.084. The value for `COc1cccc(CNCCO)c1OCc1ccccc1F` [CBK266594C] was 80.223; that for `COc1cccc(CN2CCN(C(=O)N3CCCCC3)[C@@H](C)C2)c1` [CBK284266] was 66.2292. In the case of `O=C(c1cncnc1)N1CCC2(CCCNC2)C1` (stereo not shown) [CBK153237C], the “% of control remaining” value is 100.405. The value for `Nc1ncc(-c2ccc(F)cc2)c(C2CCCN(C(=O)CCc3ccc(F)cc3)C2)n1` (stereo not shown) [CBK286092] was 98.6874; that for `O=[N+]([O-])c1ccc(-c2nc3ccc(Br)cn3[n+]2[O-])cc1` [CBK262335] was 102.695; that for `CCn1c(N2CCC(C(=O)NC3CC3)CC2)nc2ccccc21` [CBK283922] was 92.285. On to `CC(=O)Nc1ccc(N2C(=O)CC(NCCCN3CCOCC3)C2=O)cc1` (stereo not shown) [CBK265236], for which the “% of control remaining” value is given as 105.857. Under `O=C(Nc1ccc(S(=O)(=O)Nc2ccc(Cl)cc2)cc1)c1ccc(Cn2cc(Br)cn2)o1` [CBK265764] stands 57.6321. Under `Nc1ncc(-c2ccco2)nc1N1CCC(C(=O)O)CC1` [CBK063440] stands 94.5014. The value for `COCC(=O)NC(Cc1ccsc1)c1nc(C)cs1` (stereo not shown) [CBK282804] was 76.807; that for `OCCN1CCN(c2nc(-c3ccc4c(c3)OCO4)cn3ccnc23)CC1` [CBK037443] was 89.951. With `Cc1ccc(CN[C@@H]2CCC(=O)N[C@H]2c2cc(F)cc(F)c2)o1` [CBK283128], the “% of control remaining” value worked out at 94.9452. Under `CC(C)(C)NC(=O)C[C@@H]1CCNC[C@@H]1Cc1cc(-c2ccc(F)cc2)on1` [CBK288802] stands 89.4707. Take `Cc1cc(C)n(CC(=O)N2CCC(Nc3cccnn3)CC2)n1` [CBK306234]: the “% of control remaining” value is 58.8857. For the compound `Cc1c(C(=O)NC2(c3ccc(F)cc3)CCCC2)cnn1C` [CBK283978], the “% of control remaining” value turned out to be 91.9002. The value for `Nc1cc2cccnc2c(-c2cccc(C(F)(F)F)c2)n1` [CBK081177] was 103.682; that for `Cc1ccc(CO)cc1NC(=O)[C@@H]1CN(Cc2ccccc2)C[C@H]1C(=O)c1ccc(F)cc1` [CBK286431] was 79.6649. In the case of `CCCC/C=C/c1cnc(N)c(Nc2ccc3[nH]ccc3c2)n1` [CBK063811], the “% of control remaining” value is given as 134.987. For `COc1ccc2c(ccn2CC(=O)NC[C@H]2CC[C@H](C(=O)O)CC2)c1` [CBK286687], the “% of control remaining” value came to 37.6824.

Consider `CCn1nc2c(C)cc3cc(OC)ccc3n2c1=O` [CBK283823], for which the “% of control remaining” value came out at 70.6629. Under `COc1cccc(CCN2CCC(C(=O)NC(C)c3cccc4ccccc34)CC2)c1` (stereo not shown) [CBK148650] stands 73.1164; under `Cc1nnc2n1CCN(CC1CCCCO1)C2` (stereo not shown) [CBK304267], 55.619; under `Cc1ccc2cc(CN(Cc3ccccc3)C(=O)NCc3c(Cl)cccc3Cl)c(=O)[nH]c2c1C` [CBK132088], 96.8828. On to `CC(C)(C)OC(=O)N1CCN(c2ccc(N)cn2)CC1` [CBK003463], for which the “% of control remaining” value is 76.779. The value for `CC(=O)NCCSc1cccc(C(F)(F)F)n1` [CBK105299] was 96.9062; that for `O=[N+]([O-])c1ccc(/C=N/CCCN2CCOCC2)cc1` [CBK261058] was 88.2999. The value for `COc1ccccc1-c1ccc(CN(C)Cc2ccccc2N2CCOCC2)cc1` [CBK286108] was 69.0354; that for `O=C1NC2CCCCC2NC1CC(=O)N1CCN(C(c2ccccc2)c2ccccc2)CC1` (stereo not shown) [CBK269201] was 113.739; that for `COc1ccc(C(=O)N2CCC3(CC2)NC(=O)c2ccc(C(F)(F)F)cc2O3)cc1OC` [CBK166265] was 65.4139.

For `COc1ccc(CC(=O)Nc2cccc(OC(F)(F)F)c2)cc1OC` [CBK296734], the “% of control remaining” value worked out at 52.3478.

Consider `O=C(COc1ccccc1)NCc1ccc(OC2CCNCC2)cc1` [CBK028425T], for which the “% of control remaining” value was 88.2567.

With `COC(=O)c1cccc(Cn2cc(/C=C\[N+](=O)[O-])c3ccccc32)c1` [CBK269020], the “% of control remaining” value is listed as 79.1819. For the compound `COc1ccc(C(=O)Nc2ccc(N3CCN(C(=O)C(C)(C)C)CC3)cc2)cc1OC` [CBK270245], the “% of control remaining” value was determined as 101.796.

In the case of `Cc1ccc2nsnc2c1NC(=O)CN1CCN(c2ccc(F)cc2)CC1` [CBK269231], the “% of control remaining” value was found to be 73.1925.

In the case of `Cc1ccccc1-c1ccccc1CC1(C(=O)N(C)C)CCN(C(=O)C2CC=CCC2)CC1` (stereo not shown) [CBK285733], the “% of control remaining” value is recorded as 100.768.

In the case of `CCOC(=O)C1CCCN(CCC(=O)Nc2cccc(F)c2)C1` (stereo not shown) [CBK264275C], the “% of control remaining” value worked out at 91.7269. Under `CC(=O)N1CC(C(=O)N2CC3(CCCC3)c3c(F)cccc32)C1` [CBK306292] stands 87.46. Under `CN1CCc2c(sc3c2C(=O)NC(/C=C\c2ccc([N+](=O)[O-])cc2)N3)C1` (stereo not shown) [CBK262909] stands 116.541; under `Cc1cccc(C)c1NC(=O)CC(C(=O)O)N(C)C` (stereo not shown) [CBK267022], 117.559; under `Cc1ccc(OCC(=O)Nc2ncc(Cc3ccc(F)cc3)s2)cc1` [CBK293930], 102.902. With `CN(C)CCN(C)C(=O)c1ccc(-c2ccccc2CO)nc1N(C)C` [CBK076591], the “% of control remaining” value was 105.384. On to `O=C(CSc1nnc(-c2ccccc2O)o1)c1ccc(Cl)cc1` [CBK068032], for which the “% of control remaining” value is on record as 62.6987.

On to `C(=N\c1ccc(Cc2ccncc2)cc1)/c1ccc(/C=N/c2ccc(Cc3ccncc3)cc2)cc1` [CBK262137], for which the “% of control remaining” value turned out to be 95.0049. For the compound `O=C(CCc1ccc(F)cc1)N1CCCC(c2cccc(Cc3ccccc3F)n2)C1` (stereo not shown) [CBK286512], the “% of control remaining” value was found to be 88.5613.
